Inhibition data for 112 compounds are collected here from PubChem BioAssay AID1362 (SRMLSC, 2008).

The list shows a part of the results. These are further read-outs of the screen, such as a control signal, another cell line or another target. No call is given for them. Compounds called inactive in the main read-out are mostly missing here.

The nature of this assay: growth inhibition of WT strain, primary screen, mitochondrial fusion inhibitor project, WT and mutant strains, chemical genetic (AID 1362). Note: tested in S. cerevisiae. The settings on record: mitochondrial fusion phenotypic screen, at 10 µM.
Regarding `O=C(CSc1nc2cc(Cl)ccc2o1)NCCc1ccccc1`, the inhibition (commonly the relative decrease from the control value, in per cent) is -2.16%.
As for `CSc1cccc(NC(=S)N(Cc2ccc(C)cc2)Cc2cccnc2)c1`, the inhibition was 25%.
With `CCN(CC)c1ccc(/C=N/Nc2nc3ccccc3[nH]2)cc1`, the inhibition amounted to 10.9%.
With `CC/C(=C(/CC)c1ccc(O)cc1)c1ccc(O)cc1`, the inhibition worked out at 23.8%.
In the case of `c1ccc(NCc2nc3ccccc3n2CCOc2ccccc2)cc1`, the inhibition was determined as 45%.
`Cc1[nH]c2ccccc2c1N=Nc1ccccc1F`: the inhibition amounted to 55.1%.
To `COc1ccc(-n2nc(C#N)c(Cl)cc2=O)cc1` belongs 58.5%; to `Cc1cc(N/N=C/c2ccccc2O)nc(-c2ccccc2O)n1`, 66.1%.
To `CCCOP(=O)(OCCC)C(Nc1ccc(C(C)C)cc1)c1ccc([N+](=O)[O-])cc1` (configuration not stated) belongs 9.01%; to `O=C(c1ccccc1)N1N=C(c2ccccc2)CC1c1ccccc1O` (configuration not stated), 49%; to `CCCc1ccc(Oc2cn[nH]c2-c2ccc(O)c(C)c2O)cc1`, 81%.
As to `CCc1c(C)sc2nc(C(C)C)nc(SCC(=O)N3CCc4ccccc4C3)c12`, the inhibition came out at 18.5%.
Regarding `Cc1ccc(S(=O)(=O)Nc2ccccc2CNc2ccc(Br)cn2)cc1`, the inhibition is 22.7%.
Take `COc1ccccc1/C=C\C=N\n1c(C2CCCCC2)n[nH]c1=S`: the inhibition was 28.9%.
`COc1ccccc1CNC(=S)Nc1cc(C)ccc1C`: the inhibition amounted to 33.4%.
The same measure for `Fc1ccc(N=C2NN=C(c3cc(F)ccc3F)CS2)cc1`: 63.5%; for `CCCCCCCCC/C(=N\O)c1ccccn1`: 69.4%; for `CCOC(=O)C1=C(CC)Nc2ccccc2N/C1=N\S(=O)(=O)c1ccc2ccccc2c1`: 9.71%.
Take `CCc1cccc(CC)c1NC(=S)NCCc1c(C)[nH]c2ccc(C)cc12`: the inhibition is -5.9%.
To `CSc1nc2cc(Oc3cccc(Cl)c3Cl)c(Cl)cc2[nH]1` belongs 80.3%.
As for `COc1ccc(Nc2nc(-c3ccccc3)c3ccccc3n2)cc1`, the inhibition worked out at 8.25%.
As to `Cc1ccc(NC(=O)c2ccc(Nc3c([N+](=O)[O-])cc([N+](=O)[O-])cc3[N+](=O)[O-])cc2)cc1`, the inhibition was found to be 12%.
The same measure for `Cc1cc(NC(=S)N(Cc2ccc(Cl)cc2)Cc2ccc(C(=O)O)cc2)ccc1Cl`: -12%; for `Cc1cccc(C)c1NC(=S)N(Cc1ccccc1)Cc1cccs1`: 53.5%; for `COc1cc(-c2nc3ccc4ccccc4c3c3c2CCC3)ccc1O`: 55.8%.
Consider `CCN(CC)P(=O)(Nc1ccc(C)cc1Br)c1ccc(N(C)C)cc1NC(=O)c1ccco1` (configuration not stated), for which the inhibition is -10.5%.
As to `C/C(=N\NC(=S)NCc1ccccc1)c1ccccc1`, the inhibition was found to be 60.9%.
To `Cc1cc(Nc2ccccc2)c2c([N+](=O)[O-])ccc(C)c2n1` belongs 62.3%; to `Cc1ccc(Cn2nc3c(cc2=O)CCc2ccccc2-3)cc1`, 17.3%.
Take `COc1ccccc1-n1cnc2sc(-c3ccccc3)cc2c1=O`: the inhibition was 7.64%.
Regarding `Cc1cccc(C(=O)O/N=C/c2ccc(Br)cc2)c1`, the inhibition was 20.9%.
To `COc1ccc(C2CC(C)(c3ccc(OC)cc3OC)Nc3ccccc3N2)c(OC)c1` (configuration not stated) belongs 37.6%; to `O=C(COc1c(F)c(F)c(C(F)(F)F)c(F)c1F)Nc1ccc(N2CCOCC2)c(Cl)c1`, 28.9%.
Consider `O=C(NC1=NCCS1)c1cc(-c2cccc(Br)c2)nc2ccccc12`, for which the inhibition turned out to be 69.9%.
Regarding `CCCc1c(C)[nH]c2ccc(NC(C)=O)cc2c1=O`, the inhibition is -17.1%.
Take `COc1cccc(NC(=O)C(=S)NC2CCCCC2)c1`: the inhibition is 38.4%.
The same measure for `N=c1n(Cc2ccccc2)c2ccccc2n1CC(O)COc1ccc(Cl)cc1Cl` (configuration not stated): 93.6%.
Consider `Cc1ccc(C)c(NC(=S)NCc2ccc3[nH]c4c(c3c2)CCCC4)c1`, for which the inhibition was 52.1%.
`COc1ccc(C2C(C#N)=C(SC)NC3=C2C(=O)CC(C)(C)C3)cc1` (configuration not stated): the inhibition is 15.7%.
Consider `O=C(NCCCc1ccccc1)Nc1cccc(Cl)c1`, for which the inhibition was 55.6%.
Consider `Cc1ccc(S(=O)(=O)CNC(=S)c2cccc(Cl)c2)cc1`, for which the inhibition was found to be 68%.
Turning to `CNc1ccccc1C(C)(C)c1cc(-c2cccc(Br)c2)no1`, the inhibition turned out to be 29.2%.
`Cc1ccc(C2CC(c3cccs3)=NN2S(=O)(=O)c2ccc(C)cc2)cc1` (configuration not stated): the inhibition stood at 45%.
For the compound `COc1ccc(OC)c(NC(=S)NCCSc2ccc(C)cc2)c1`, the inhibition turned out to be 49.5%.
The same measure for `Cc1cccc(NC(=S)NC2CCCCC2)n1`: 49.6%; for `O=S(=O)(NCCNc1ncc(C(F)(F)F)cc1Cl)C(F)(F)F`: 76%.
Turning to `O=C1NN=C(c2ccc(Br)cc2)CC1c1ccc(Cl)cc1` (configuration not stated), the inhibition is 20.8%.
As to `Cc1nc(N)sc1N=Nc1ccc(Br)cc1`, the inhibition turned out to be 57.5%.
In the case of `C/C(=N\Nc1ccccn1)c1ccc(C(C)C)cc1`, the inhibition is 41.2%.
As to `CCCCn1nnc(NC(=S)NC(=O)c2ccc(-c3cccc(Cl)c3Cl)o2)n1`, the inhibition worked out at 47.3%.
To `Cc1ccc(CSc2ncnc3c2cnn3Cc2ccccc2)cc1` belongs 48.4%; to `O=S(=O)(c1ccc(Br)s1)N1CCN(Cc2ccc3c(c2)OCO3)CC1`, 31.1%.
As to `COc1ccc(NC(=O)N2c3ccccc3CC2C)cc1OC` (configuration not stated), the inhibition was -3.03%.
Regarding `Cc1cccc(N=Nc2c(C)nn(-c3ccccc3)c2N)c1C`, the inhibition is 71.6%.
Turning to `COc1ccc(Nc2nc(N3CCCCC3)c3ccccc3n2)cc1`, the inhibition is 59.9%.
For the compound `COc1cccc(-c2csc(N3CCN(C(=O)Nc4ccc(Cl)cc4)CC3)n2)c1`, the inhibition was 32.4%.
For `Cc1cc(C(=O)Nc2nc(-c3ccccn3)cs2)ccc1[N+](=O)[O-]`, the inhibition came out at 55.6%.
Take `OCCN(Cc1ccccc1)CC(O)COc1ccc(-c2ccccc2)cc1` (configuration not stated): the inhibition worked out at 56.6%.
For the compound `Oc1ccc(C[C@@H]2CNC(=S)N2CCCCC2CCCCC2)cc1`, the inhibition came out at 82.3%.
On to `CCCCNC(=O)C1CCN(S(=O)(=O)c2cnc[nH]2)CC1`, for which the inhibition was found to be 3.31%.
For the compound `CC(C)CNC(=O)c1oc2ccccc2c1COc1ccccc1`, the inhibition worked out at 16.9%.
As for `Cc1ccnc(NS(=O)(=O)c2ccc(N=CC3=C(O)CC(C)(C)CC3=O)cc2)n1`, the inhibition was determined as 3.94%.
On to `Cc1ccc(-n2cc(CN3CCN(Cc4nccn4C)CC3)c(-c3cccc(C)c3)n2)cc1`, for which the inhibition turned out to be 20%.
Take `N/C(Cc1ccc([N+](=O)[O-])cc1)=N\OC(=O)c1ccc2ccccc2c1`: the inhibition amounted to 74.9%.
As for `CCOC(=O)c1cccc2c1-c1ccccc1/C2=N/O`, the inhibition was 61.4%.
To `Cc1c(C)c2cc(Cl)c(O)c(CN3CCCC(C)C3)c2oc1=O` (configuration not stated) belongs 2.77%.
On to `C=CCN(C(=O)c1cccc(S(=O)(=O)N2CCN(C)CC2)c1)c1nc(-c2ccccc2)cs1`, for which the inhibition was found to be 11.8%.
To `O=C(CN1C(=O)CCC1=O)NNc1ccc2ccccc2c1` belongs 49.4%.
The same measure for `OC(COc1ccc2ccccc2c1Br)Cn1ccnc1` (configuration not stated): 50.9%; for `O=C(NC(=S)NC1C2CC3CC(C2)CC1C3)C12CC3CC(CC(C3)C1)C2` (configuration not stated): 36.4%; for `CCCCNC(=S)NCc1ccc2[nH]c3c(c2c1)CCCC3`: 43.2%.
As for `N#CC(Sc1ccccn1)c1ccc(Cl)cc1` (configuration not stated), the inhibition is 45.2%.
Take `CC(C)Cn1c(N)c(C(=O)COC(=O)CC23CC4CC(CC(C4)C2)C3)c(=O)n(C)c1=O`: the inhibition was 36.8%.
To `S=c1[nH]nc(-c2cc3ccccc3o2)n1Cc1ccccc1` belongs -37.4%.
With `CC1=C/C(=N\Nc2ccccc2[N+](=O)[O-])CC(C)(C)C1`, the inhibition is 37.5%.
On to `COc1cc(CNCCO)cc(Br)c1OCc1ccccc1Cl`, for which the inhibition worked out at 19.1%.
The same measure for `COc1ccccc1N1CCN(C(=O)c2oc3cc(C)cc(C)c3c2C)CC1`: -2.7%; for `FC(F)(F)c1cc(CCN2C(=S)NC[C@@H]2Cc2ccccc2)cc(C(F)(F)F)c1`: 24.3%.
Turning to `Cc1nc2ccc(NC(=O)COc3ccccc3)cc2s1`, the inhibition came to 73.1%.
The same measure for `CCOC(=O)C1=C(C)NC(=S)NC1c1ccc(-c2ccc(Cl)cc2)o1` (configuration not stated): 15.4%; for `OCCNCc1ccc(OCc2ccc(Cl)cc2Cl)cc1`: 64.4%.
In the case of `Cc1cc(NC(=O)c2ccccc2-c2ccccc2)ccc1Br`, the inhibition came out at 56.1%.
The same measure for `S=c1nc(SCc2ccccc2)[nH]c2ccccc12`: 55%; for `Cc1cccc(C)c1-n1nnnc1C1(Nc2ccccc2)CCCCC1`: 27.3%.
The same measure for `CCOC(=O)c1cnc(-c2ccccc2)nc1-c1ccccc1`: 1.86%; for `Cc1cccc(N2CCN(C(=O)COc3ccc4c(c3)CCC4)CC2)c1C`: 5.49%; for `C=CCn1c(SCC(N)=O)nc(C)cc1=O`: 16%.
Regarding `Cc1ccc(S(=O)(=O)c2c(C)cc(C)nc2Oc2cccc(C)c2C)cc1`, the inhibition is 6.68%.
The same measure for `Cc1ccc(C(C)C)c(OC(=O)/C=C/c2ccccc2)c1`: 63.3%.
Turning to `Cc1cc(NC(=O)c2sccc2C)n(-c2nc3ccccc3[nH]2)n1`, the inhibition amounted to 75.1%.
Consider `CC(Oc1ccc(Cl)cc1Cl)c1nc(-c2ccc(NC(=O)c3ccco3)cc2)no1` (configuration not stated), for which the inhibition came out at 67.1%.
In the case of `Fc1ccccc1C1c2cccn2CCN1C(=S)Nc1ccc(Br)cc1` (configuration not stated), the inhibition worked out at 53.3%.
On to `CCOC(=O)C1CCCN(c2c(C(=O)c3ccccc3)cnc3ccccc23)C1` (configuration not stated), for which the inhibition is -2.15%.
The same measure for `CCOc1c(OC(C)=O)ccc(/C=C/c2ccc3cccc(OC(C)=O)c3n2)c1[N+](=O)[O-]`: 14%; for `CCNc1nc(NC(C)(C)C)nc(N2CCCCC2)n1`: 71.2%.
Take `CNc1nc(-c2ccc(OC)cc2)c(-c2ccc(OC)cc2)s1`: the inhibition was determined as 34.9%.
For the compound `CCn1c(CNC(=O)c2ccco2)nnc1SCC(=O)Nc1cc(C(F)(F)F)ccc1Cl`, the inhibition was -5.01%.
As for `CCOC(=O)C1=C(C)C(c2cccc(Oc3ccccc3)c2)NC(=S)N1` (configuration not stated), the inhibition came out at 0.79%.
Consider `CN(C1=C(NC(=O)c2ccc(Cl)cc2)C(=O)c2ccccc2C1=O)c1ccccc1`, for which the inhibition was found to be 30.9%.
Regarding `CCC(=O)Nc1cccc(C(=O)/C=C/c2cc(Br)ccc2OC)c1`, the inhibition worked out at 55.8%.
Take `CC(c1ccccc1)N(CCC(c1ccccc1)C1CCOC(C)(C)C1)C(=O)c1ccco1` (configuration not stated): the inhibition was -3.75%.
For the compound `O=C(NC(NNc1ccc([N+](=O)[O-])cc1)(C(F)(F)F)C(F)(F)F)c1ccc(Cl)cc1`, the inhibition came out at 43.6%.
On to `Cc1ccccc1OCCNc1cc(N2CC(C)NC(C)C2)ccc1[N+](=O)[O-]` (configuration not stated), for which the inhibition was 83.9%.
With `CCS(=O)(=O)Nc1ccc(-c2cc(-c3ccccc3)c3cc(C)ccc3n2)cc1`, the inhibition came to 10.2%.
With `CCc1ccc(NC(=O)c2cc3c(C)nc4ccccc4c3o2)cc1`, the inhibition turned out to be 12.7%.
Turning to `Cc1ccc(-n2nnnc2SCC(=O)N2CCc3ccccc3C2)c(C)c1`, the inhibition amounted to 51.4%.
On to `Cc1cc(S(=O)(=O)N2CCN(c3ccccc3C)CC2)ccc1F`, for which the inhibition came out at 32.6%.
The same measure for `C/C(=N\NC(=S)NC1CCCCC1)c1cccs1`: 66.5%.
Turning to `CCOC(=O)C1=C(NC(=S)NC(=O)c2ccccc2)c2ccccc2CC1(C)CC` (configuration not stated), the inhibition is 7.46%.
As to `COc1cc(SC)ccc1C(=O)NCC1CCCO1` (configuration not stated), the inhibition was determined as 9.87%.
The same measure for `CCOc1ccc(NC(=S)NCCCc2ccccc2)cc1`: 46.6%; for `CCOP(=O)(c1ccccc1)c1nc(-c2ccccc2Cl)oc1N1CCCCC1` (configuration not stated): 18.6%.
